Source: the supplement of paper PMC10498489
Out of some 2,300 compounds screened, about 330 (14%) showed activity.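 How the source made its calls: active = median modified Z-score above 1.96; inactive = 1.96 or below.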 The entries are a selection whose mix differs from that of the whole data set.

test system: HepG2 Srxn1-GFP reporter cells (+30 nM CDDO-Me); test: Srxn1-GFP intensity median modified Z-score relative to plate median; higher = stronger NRF2 / oxidative stress reporter activation, active = hit call of the paper; details: 10 µM; exposure time: 24h
Procedure, shortened: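 Per-cell cytoplasmic GFP was measured on confocal images of formaldehyde-fixed, Hoechst-stained HepG2 Srxn1-GFP BAC reporter cells, excluding images with fewer than 100 cells. Before this, the cells (20,000 per well, 96-well plates) were co-exposed for 24 h to compound at 10 μM and an NRF2 activator at 30 nM with ≤0.1% DMSO, in three replicate plates. Each value is the median over replicates of the per-plate modified Z-score of GFP intensity. That score was scaled with 1.4826 × median absolute deviation.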

Srxn1-GFP intensity median modified Z-score, active:
CC(=O)C1CCC2C3CC=C4CC(=O)CC[C@]4(C)C3CC[C@]12C (some centres undefined) [euspeclibcmpd251] 2.27, CON=C(C(=O)NC1C(=O)N2C(C(=O)O)=C(C[N+]3(C)CCCC3)CSC12)c1csc(=N)[nH]1 (centres undefined) [euspeclibcmpd504] 35.8, COC(=O)N=c1[nH]c2ccc(C(=O)c3ccccc3)cc2[nH]1 [euspeclibcmpd378] 19.3, COc1ccc(-c2cc(=O)c3c(OC)c(OC)c(OC)c(OC)c3o2)cc1 [euspeclibcmpd1464] 6.78, CC(C)=CCCC(C)[C@@H]1CC[C@]2(C)C3=C(CC[C@@]12C)C1(C)CC[C@H](O)C(C)(C)C1CC3 (some centres undefined) [euspeclibcmpd2235] 2.85, O=C(Nc1ccc([N+](=O)[O-])cc1Cl)c1cc(Cl)ccc1O [euspeclibcmpd562] 2.35, CS(C)(=O)=O [euspeclibcmpd1496] 20.2, Cc1cccc(N(C)C(=S)Oc2ccc3ccccc3c2)c1 [euspeclibcmpd299] 8.23, Cc1ccc2[nH]c3c(c2c1)CC(Nc1ccc(CCC(=O)N2CCCC2)cc1)CC3 (centres undefined) 4.66

Srxn1-GFP intensity median modified Z-score, inactive:
Cc1ccccc1-n1cnnc1SCC(=O)c1ccc2c(c1)OCCO2 1.22, CC12CCC3c4ccc(O)cc4CC(CCCCCCCCC[S+]([O-])CCCC(F)(F)C(F)(F)F)C3C1CCC2O (centres undefined) [euspeclibcmpd1981] -0.582, O=C(O)c1ccc[n+]([O-])c1 [euspeclibcmpd1240] -0.339, CCOC(=O)C(CCc1ccccc1)NC(C)C(=O)N1C(C(=O)O)C[C@@H]2CCC[C@@H]21 (some centres undefined) [euspeclibcmpd722] -0.468, O=C(O)C1=CC(=C(c2ccc(O)c(C(=O)O)c2)c2ccc(O)c(C(=O)O)c2)C=CC1=O [euspeclibcmpd1741] -0.835, N#Cc1ccc(C(=O)NCCCCN2CCOCC2)cc1 0.374, CN(C(=O)CN(CCO)CC(=O)N(C)C(C)(C)Cc1ccccc1)C(C)(C)Cc1ccccc1 [euspeclibcmpd569] -1.21, CCCCCCNC(=O)n1cc(F)c(=O)[nH]c1=O [euspeclibcmpd1269] 1.94, COc1ccc(Cl)cc1C(=O)NCCc1ccc(S(=O)(=O)NC(=O)NC2CCCCC2)cc1 [euspeclibcmpd1303] -0.77, COC(=O)C[C@H]1C2(C)CC34OC5(C)O[C@@]6([C@H](OC(C)=O)C(OC(C)=O)[C@]7(C)C(C(C(=O)C(C)C)C(=O)O[C@H]7c7ccoc7)[C@@]6(O5)[C@H](OC(C)=O)[C@@]3(O)C2OC(=O)C(C)C)[C@]14C (some centres undefined) [euspeclibcmpd1593] 0.648, CC(C)Oc1ccc2c(=O)c(-c3ccccc3)coc2c1 [euspeclibcmpd1027] 0.067, CC(=O)Nc1c(I)cc(I)c(C(=O)O)c1I [euspeclibcmpd651] -0.413, Cc1cc2cc3c(C)cc(=O)oc3c(C)c2o1 [euspeclibcmpd311] -0.0285, COC(=O)c1c(OC)cc2c(c1C)Oc1c(Cl)c(O)c(Cl)c(C)c1C(=O)O2 [euspeclibcmpd1672] 0.324, O=C(NCCCN1CCOCC1)c1ccc(Cl)cc1 [euspeclibcmpd2351] 0.24, COc1cc(CNC(=O)CCCC/C=C/C(C)C)ccc1O [euspeclibcmpd388] 0.638, CC1(C)SC2C(NC(=O)COc3ccccc3)C(=O)N2C1C(=O)O (centres undefined) [euspeclibcmpd2314] 0.0167, CCC(N)C12CC3CC(CC(C3)C1)C2 (centres undefined) 0.333, CN[C@H]1CC[C@@H](c2ccc(Cl)c(Cl)c2)c2ccccc21 [euspeclibcmpd730] -0.98, Cc1cc[nH]c(=NS(=O)(=O)c2ccc(N)cc2)n1 [euspeclibcmpd275] -0.506, CCC(=O)OCC(=O)C1(OC(=O)CC)C(C)CC2C3C(Cl)C=C4CC(=O)C=CC4(C)C3C(O)CC21C (centres undefined) [euspeclibcmpd1830] -0.727, CCCCCCOc1ccccc1C(N)=O [euspeclibcmpd1139] 0.59, COc1cccc2c(O)c3c(O)c4c(c(O)c3c(O)c12)=C(O[C@H]1C[C@H](N)[C@H](O)[C@H](C)O1)C[C@](O)(C(C)=O)C=4 [euspeclibcmpd83] 0.648, NC[C@H](O)c1ccc(O)c(O)c1 [euspeclibcmpd212] -0.909, CCN(CC)CCNC(=O)c1ccc(N)cc1 [euspeclibcmpd247] -0.33, COc1ccc(-c2cc(=O)c3c(OC)c(OC)c(OC)c(OC)c3o2)cc1OC [euspeclibcmpd1435] 1.9, O=c1cc[nH]c(=O)[nH]1 [euspeclibcmpd476] -0.4, C=C1C(N)CC2CC1C2(C)C (centres undefined) [euspeclibcmpd1932] -0.42, CCCCC(CC)COc1ccc(-c2nc(-c3ccc(OC)cc3)nc(-c3ccc(OCC(CC)CCCC)cc3O)n2)c(O)c1 (centres undefined) [euspeclibcmpd711] -0.225, NC[C@H]1O[C@H](OC2[C@@H](N)C[C@@H](N)[C@H](O[C@H]3O[C@H](CO)[C@@H](O)[C@H](N)[C@H]3O)[C@H]2O)[C@H](O)[C@@H](O)[C@@H]1O (some centres undefined) [euspeclibcmpd168] -0.199, CN1CCN(C(=O)Oc2c3nccnc3c(O)n2-c2ccc(Cl)cn2)CC1 [euspeclibcmpd2130] -0.245, CC12CC3CC(C)(C1)CC(N)(C3)C2 [euspeclibcmpd384] -0.12, CCOc1ccc(Cc2nccc3cc(OCC)c(OCC)cc23)cc1OCC [euspeclibcmpd1056] -1.25, CCN1CCCC1CNC(=O)c1cc(S(N)(=O)=O)ccc1OC (centres undefined) [euspeclibcmpd403] 0.263, NNC(=O)c1ccncc1 [euspeclibcmpd163] 0.00123
